The whole screen tested about 350,000 compounds, of which about 260 (0.074%) were called active. The inconclusive results got no clear call from the source; some entries with a clear call stand among them for comparison. The call rests on the fitted dose curve; in most records, active means well fitted inhibition curve with a large enough effect; inconclusive means small, poorly fitted or top-dose-only effect; inactive means no such curve, though single readings can be large or run the other way. A potency beside an inconclusive call is a rough fit, not a confirmed value.
biological target: Ferritin light chain (Equus caballus) (UniProt P02791); test: qHTS Assay for Identification of Novel General Anesthetics; details: apoferritin/1-aminoanthracene competitive binding, fluorescence; activity change, negative = displacement: at 77.5 µM (top of the series); further: nearly all actives have a fitted effect of over 20% in size
Sequence of UniProt P02791 (P02791 whole entry, looked up): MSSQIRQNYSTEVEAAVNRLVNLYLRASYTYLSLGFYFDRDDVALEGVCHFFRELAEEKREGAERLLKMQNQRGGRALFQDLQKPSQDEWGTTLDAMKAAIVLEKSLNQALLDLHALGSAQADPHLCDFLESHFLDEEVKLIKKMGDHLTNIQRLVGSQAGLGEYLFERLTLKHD
Method in brief: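 Horse-spleen apoferritin (10 uM) was mixed with 50% saturated 1-aminoanthracene in PBS, exposed to compounds for 10 min at room temperature, and read for fluorescence (ex 380 nm, em 535 nm). Competitive displacement was fitted with a four-parameter Hill equation.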
On the % scale 0 is the no-effect control and ±100 the full control effect; potency means the concentration at half of the fitted maximal effect; tags describe the fitted curve by direction and shape.

| Structure (SMILES) | Potency | activity change, negative = displacement |
| --- | --- | --- |
| COc1ccc(CC(=O)NC(=S)Nc2ccc(S(=O)(=O)NC(C)(C)C)cc2)cc1 | inconclusive: 20 µM [inhibitor, partial curve] |  |
| O=C(/C=C\c1ccc(-c2cccc([N+](=O)[O-])c2)o1)N1CCOCC1 | inconclusive: 35.5 µM [inhibitor, single point] |  |
| CCCCNC(C(=O)Nc1ccc([N+](=O)[O-])cc1Br)c1ccccc1 (stereo not given) |  | inactive: -3.87% |
| CCCCCCCCCC(=O)Nn1cnc2ccccc2c1=O | inconclusive: 35.5 µM [inhibitor, partial curve] |  |
| O=C(Nc1cccc(C(F)(F)F)c1)C1CCCN1S(=O)(=O)c1cccc2cccnc12 (stereo not given) | inconclusive: 28.2 µM [inhibitor, partial curve] |  |
| Cc1ccc(NC(=S)N2CCCC(O)C2)cc1 (stereo not given) | inconclusive: 22.4 µM [inhibitor, partial curve] |  |
| COc1ccc2nc(C)cc(Nc3ccc(C)cc3)c2c1 |  | inactive: -12.9% |
| Cc1cc([N+](=O)[O-])ccc1NC1CCCC1 | inconclusive: 25.1 µM [inhibitor, partial curve] |  |
| COC(=O)c1c(NC(=O)c2nn(C)cc2Cl)sc2c1CCCC2 |  | inactive: 3.06% |
| CCOC(=O)CSc1nc(C)nc2c1sc1nc(C)c(C(C)=O)c(-c3ccc(OC)cc3)c12 |  | inactive: -7.64% |
| Cc1ccc(C2=NS(=O)(=O)N(C)C(C(=O)NCc3ccco3)=C2)cc1 | inconclusive: 22.4 µM [inhibitor, partial curve] |  |
| COc1ccc(/C=N\NC(=O)CC(=O)Nc2cccc(Cl)c2)cc1OC | inconclusive: 14.1 µM [inhibitor, partial curve] |  |
| CC(C)(C)c1ccc2c(c1)OC(C(=O)N/N=C/c1ccc([N+](=O)[O-])o1)CO2 (stereo not given) | inconclusive: 31.6 µM [inhibitor, single point] |  |
| O=C(CSc1n[nH]c(-c2ccccc2)n1)Nc1ncc(Br)cc1Br | inconclusive: 35.5 µM [inhibitor, partial curve] |  |
| CC(C)OCCCN1CN(S(=O)(=O)c2cccc(Cl)c2)c2nc3ccccc3nc21 | inconclusive: 31.6 µM [inhibitor, partial curve] |  |
| COc1cc(NC2CCCCC2O)c2nc(-c3ccc(Cl)cc3)ccc2c1 (stereo not given) | inconclusive: 11.2 µM [inhibitor, partial curve] |  |
| O=c1c2cc(N3CCOCC3)ccc2[nH]c(=S)n1CCN1CCCC1 |  | inactive: 48.5% |
| O=C(CSCC(=O)N1CCCCC1)Nc1nc(-c2cccs2)cs1 | inconclusive: 15.8 µM [inhibitor, partial curve] |  |
| COc1ccc(N2C(=O)C3C4C=CC(CC4)C3C2=O)c([N+](=O)[O-])c1 (stereo not given) | inconclusive: 25.1 µM [inhibitor, partial curve] |  |
| O=C(Nc1ccnc(=O)[nH]1)c1sc2ccccc2c1Cl |  | inactive: 1.97% |
| COc1ccc(NC(=O)c2nnn(Cc3nc(-c4cc(Br)ccc4OC)oc3C)c2C)cc1 |  | inactive: -0.292% |
| O=C(CCS(=O)(=O)c1ccc(Br)cc1)Nc1ccccc1Cl |  | inactive: 2.86% |

| Structure (SMILES) | Potency | activity change, negative = displacement |
| --- | --- | --- |
| Cc1c(C(=O)N2CC3(CC(c4cccc(NC(=O)CC(c5ccccc5)c5ccccc5)c4)=NO3)C[C@@H]2C(N)=O)cc([N+](=O)[O-])cc1[N+](=O)[O-] (stereo not given in full) | inconclusive: 25.1 µM [inhibitor, partial curve, poor fit] |  |
| O=C(CCc1ccccc1)NC(=S)Nc1ccccc1[N+](=O)[O-] | inconclusive: 14.1 µM [inhibitor, partial curve] |  |
| Cc1ccc(C)c(Cn2c(=O)n(CCCCC(=O)NCc3ccccc3Cl)c(=O)c3ccccc32)c1 |  | inactive: 22.6% |
| CCC(=O)N1CCc2cc(S(=O)(=O)NCCC(=O)NCc3ccccc3Cl)ccc21 | inconclusive: 28.2 µM [inhibitor, single point] |  |
| Cc1ccc(Oc2ccc(NC(=O)c3ccco3)cc2)cc1 | inconclusive: 11.2 µM [inhibitor, full curve] |  |
| CC(=O)NCCNc1nc2c(S(=O)(=O)c3ccc(C)c(C)c3)nnn2c2ccc(Cl)cc12 | inconclusive: 35.5 µM [inhibitor, partial curve] |  |
| COc1ccc(OCc2nc(N)nc(Nc3ccc(C)cc3)n2)cc1 | inconclusive: 35.5 µM [inhibitor, partial curve] |  |
| O=C(NC1CCCN(Cc2ccc(Cl)cc2)C1)c1cnc2ccccn2c1=O (stereo not given) | inconclusive: 22.4 µM [inhibitor, partial curve] |  |
| Cc1ccc(S(=O)(=O)N2CCCCC2)cc1NC(=O)COC(=O)c1cc[n+]([O-])cc1 | inconclusive: 31.6 µM [inhibitor, partial curve] |  |
| CC1CCN(C2=C(NS(=O)(=O)c3ccc(Br)cc3)C(=O)c3ccccc3C2=O)CC1 |  | inactive: -11.3% |
| CCN(CC)S(=O)(=O)c1ccc2c(c1)c(=O)c(C(=O)NCc1ccccc1)cn2C | inconclusive: 3.55 µM [inhibitor, partial curve] |  |
| CCOC(=O)NNc1ccc2nonc2c1[N+](=O)[O-] |  | inactive: -17.2% |
| Cc1nn(C)c(C(=O)Nc2ccn(C34CC5CC(CC(C5)C3)C4)n2)c1[N+](=O)[O-] | inconclusive: 50.1 µM [inhibitor, single point] |  |
| CCCOC(=O)c1ccc(Oc2c(-c3ccc(O)cc3O)n[nH]c2C)cc1 | inconclusive: 31.6 µM [inhibitor, partial curve] |  |
| COc1ccc(CN2CCNC(=O)C2CC(=O)NC2CCCCCCC2)cc1C (stereo not given) | inconclusive: 28.2 µM [inhibitor, single point] |  |
| CCC1Sc2ccc(S(=O)(=O)CCC(=O)Nc3ccccc3Cl)cc2NC1=O (stereo not given) |  | inactive: -3.99% |
| CCOC(=O)/C=C/C(=O)Nc1ccc(S(=O)(=O)N2CCCCCC2)cc1 | inconclusive: 31.6 µM [inhibitor, partial curve] |  |
| O=C(NCc1ccccc1)c1ccc(NC(=O)c2nsc3ccccc23)cc1 | inconclusive: 31.6 µM [inhibitor, partial curve] |  |
| Cc1ccc(N2C(=O)N(CC(=O)Nc3ccc(C)cc3C)C(=O)C2C)cc1 (stereo not given) | inconclusive: 35.5 µM [inhibitor, partial curve] |  |
| CCCNC(=O)c1ccc(-n2c(-c3ccccc3)cc3c2CCCCC3)cc1 | inconclusive: 25.1 µM [inhibitor, partial curve] |  |
| COc1ccccc1NCC(=O)NNCC(=O)Nc1ccc(F)c(Cl)c1 | inconclusive: 28.2 µM [inhibitor, partial curve] |  |
| COc1cc(Nc2ncc3c(n2)CCN(Cc2cc(Br)cs2)C3)cc(OC)c1 |  | inactive: 35.5% |

| Structure (SMILES) | Potency | activity change, negative = displacement |
| --- | --- | --- |
| Cc1cc(Nc2ccc(F)cc2)n2c(nc3ccccc32)c1C#N |  | inactive: -11.6% |
| COC(=O)c1cc(C(=O)c2ccc(C(C)(C)C)cc2)c[nH]1 | inconclusive: 31.6 µM [inhibitor, single point] |  |
| CCCCNc1nc2c(S(=O)(=O)c3ccc(C)c(C)c3)nnn2c2ccsc12 | inconclusive: 3.98 µM [inhibitor, full curve] |  |
| CCCCN=c1scc(-c2ccc3c(c2)NC(=O)CO3)n1N=C1CCCC1 | inconclusive: 20 µM [inhibitor, partial curve] |  |
| Cc1sc(NC(=O)c2ccco2)c(C(Nc2ccccn2)c2ccccc2)c1C (stereo not given) |  | inactive: -2.48% |
| Cc1occc1C(=O)Nc1ccc(OCc2ccccc2)cc1 | inconclusive: 31.6 µM [inhibitor, partial curve] |  |
| Oc1cccc(-c2nc3ccc4ccccc4c3c3c2CCC3)c1 | inconclusive: 50.1 µM [inhibitor, partial curve, poor fit] |  |
| CCOc1ccc(NC(=O)Cn2c(C)cc3ccccc3c2=O)cc1 |  | inactive: 0.15% |
| S=c1[nH]nc(COc2ccc(Cl)cc2Cl)n1-c1ccccc1 | inconclusive: 44.7 µM [inhibitor, partial curve] |  |
| COC(=O)C1CC(=O)N(c2ccc(OCc3ccccc3Cl)cc2)C1 (stereo not given) | inconclusive: 39.8 µM [inhibitor, single point] |  |
| CC(C)N1CCCC(CNC(=O)CCc2nnc(CCCCc3ccccc3)o2)C1 (stereo not given) | inconclusive: 35.5 µM [inhibitor, single point] |  |
| CCc1c(C)sc(NC(=O)c2cc(C3CC3)on2)c1C#N | inconclusive: 22.4 µM [inhibitor, partial curve] |  |
| Cc1ccc(S(=O)(=O)Nc2ccc(C(OC(=O)c3ccccc3[N+](=O)[O-])(C(F)(F)F)C(F)(F)F)cc2)cc1 | inconclusive: 5.62 µM [inhibitor, full curve] |  |
| COc1ccc(-c2n[nH]c(C(F)(F)F)c2-c2cc3ccccc3o2)c(O)c1 | inconclusive: 11.2 µM [inhibitor, partial curve] |  |
| CCOC(=O)c1c(NC(=O)CSc2nnc(Cc3ccccc3)o2)sc(C(C)=O)c1C | inconclusive: 35.5 µM [inhibitor, partial curve] |  |
| Cn1c(-n2cccc2)c(-c2c(-c3ccccc3)[nH]c3c2c(=O)n(C)c(=O)n3C)c(=O)n(C)c1=O |  | inactive: 38.6% |
| CCCCCCCCCCCCC[N+](C)(C)Cc1ccccc1 | inconclusive: 56.2 µM [inhibitor, single point] |  |
| Cc1cc(NC(=O)C(C)SCC(=O)OCc2c(Cl)cccc2Cl)no1 (stereo not given) | inconclusive: 28.2 µM [inhibitor, partial curve] |  |
| NS(=O)(=O)c1ccc(NC(=O)N2c3ccccc3Sc3ccccc32)cc1 | inconclusive: 6.31 µM [inhibitor, full curve] |  |
| CCN1CCOC(=O)C1CC(=O)Nc1cc(C)cc(C)c1 (stereo not given) | inconclusive: 25.1 µM [inhibitor, single point] |  |
| Cc1cc(C)cc(NS(=O)(=O)c2ccc3[nH]cc(C(=O)N(C)Cc4ccccc4)c(=O)c3c2)c1 | inconclusive: 3.55 µM [inhibitor, full curve, poor fit] |  |
